# Paper PMC6212790
# This is one part of the list. At the low end of the ranking the order means little.
# Molecular target: T1, GST-Rok (full length) (UniProt O34857)
# T1 sequence: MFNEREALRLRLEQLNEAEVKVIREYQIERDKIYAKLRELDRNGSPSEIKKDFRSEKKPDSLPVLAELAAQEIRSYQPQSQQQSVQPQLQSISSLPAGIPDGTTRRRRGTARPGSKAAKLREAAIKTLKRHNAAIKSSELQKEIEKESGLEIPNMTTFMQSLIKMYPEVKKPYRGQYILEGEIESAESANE
# Test: protein binding microarray;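 note: rank score from −0.5 (least bound) to 0.5 (best bound)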
# Settings: Rok is a gene silencer of Bacillus subtilis; high values mean tight binding; most listed sequences are background and not binding sites; double strand, one strand shown
row,Sequence,binding signal
1,CTGCCGGC,-0.261 E-score
2,ATCTTTCA,0.0379 E-score
3,CTTAGAAG,-0.0458 E-score
4,CGTGTAGC,-0.103 E-score
5,CGTGCTAC,0.161 E-score
6,AAGTCCCC,-0.186 E-score
7,GTTTGACA,-0.14 E-score
8,AATAAACA,0.161 E-score
9,ACTGGCAC,-0.184 E-score
10,AAGGCCGC,-0.29 E-score
11,GCGTTGCA,-0.0669 E-score
12,CCATGAAC,-0.111 E-score
13,ACGTATAA,0.244 E-score
14,CGGCGCCC,-0.171 E-score
15,ATTAGTGC,0.277 E-score
16,AGGAGCGC,-0.198 E-score
17,ACTCTTGG,-0.0978 E-score
18,CAATTGCC,-0.0385 E-score
19,ACTCATCG,-0.0141 E-score
20,ATGCCGTA,0.0551 E-score
21,AGCGGTAC,-0.166 E-score
22,CTCTACTC,0.00346 E-score
23,AAGTTTGG,-0.00854 E-score
24,GAGTAATC,0.0112 E-score
25,CAACCGAG,-0.0698 E-score

row,Sequence,binding signal
1,AAAGCGTA,0.00405 E-score
2,ATATACAC,0.339 E-score
3,TCCATAAA,0.119 E-score
4,ACACAATA,0.151 E-score
5,CCTGCCAA,-0.0369 E-score
6,AGCTTTAT,0.0387 E-score
7,AGACACTA,0.125 E-score
8,CTCCAAGA,-0.0998 E-score
9,ACGTCCCA,-0.173 E-score
10,ACCCGGAC,-0.258 E-score
11,CACAGCAG,-0.275 E-score
12,ATTCCAAG,0.139 E-score
13,AAGTTGGA,-0.00588 E-score
14,ACACCGGC,-0.293 E-score
15,AATGGTCT,-0.0499 E-score
16,ACGCTGTG,-0.184 E-score
17,TGCTCAAA,-0.0504 E-score
18,ACAAACGT,0.127 E-score
19,ATCGGCCA,-0.041 E-score
20,AGCATGCC,-0.0856 E-score
21,AGTTATTC,0.069 E-score
22,GGGTTGGA,-0.22 E-score
23,TGGCACAA,-0.172 E-score
24,GTCCGGCA,-0.0982 E-score
25,GCCACATA,-0.0655 E-score

row,Sequence,binding signal
1,TGGGACCA,-0.221 E-score
2,AATTGTGA,0.214 E-score
3,GCGTAAAA,0.102 E-score
4,GCATTACA,0.129 E-score
5,AGGGTCTA,-0.159 E-score
6,ACCTTCTC,-0.145 E-score
7,CGATTGCC,-0.132 E-score
8,ACTACGGC,0.107 E-score
9,AAGATTGA,0.034 E-score
10,AGTAAACT,0.14 E-score
11,AATGCAGT,-0.0393 E-score
12,TACTTCTA,0.36 E-score
13,CTCATTAC,0.0391 E-score
14,AGTAGTAG,0.349 E-score
15,CTCTTGGA,-0.196 E-score
16,ACGGATAT,0.14 E-score
17,CCCTGACC,-0.338 E-score
18,GGCCGAAA,-0.147 E-score
19,GGGATTTA,0.119 E-score
20,ATTGGCGA,-0.00169 E-score
21,ATCTAGAC,0.113 E-score
22,GAGCCTAC,-0.162 E-score
23,GCAATGGA,-0.149 E-score
24,CTCTCGTA,-0.0549 E-score
25,GAATTTTA,0.228 E-score

row,Sequence,binding signal
1,AAGTGCTG,-0.255 E-score
2,CGGTGCGA,-0.222 E-score
3,CTCAAGCA,-0.0872 E-score
4,GCTCAATA,0.0528 E-score
5,ATACACTG,0.127 E-score
6,GGGCGTTA,-0.232 E-score
7,AAAACCAA,0.129 E-score
8,GTTGCTAA,0.0781 E-score
9,ACAAAGAG,0.0115 E-score
10,GTCCTGTA,-0.0798 E-score
11,AGGTTACA,0.0709 E-score
12,AGGTGTCC,-0.158 E-score
13,ATGGTTTG,0.06 E-score
14,ATCAGGAA,0.214 E-score
15,GATGACGA,-0.162 E-score
16,CAAGGCTC,-0.369 E-score
17,AATCGGAG,-0.0442 E-score
18,ACACTTAT,0.194 E-score
19,CGGCAGGC,-0.392 E-score
20,GAGACTCA,-0.268 E-score
21,CCATAATA,0.116 E-score
22,ATGAGATG,-0.0269 E-score
23,AGGTTCAA,0.0184 E-score
24,CGCTGATA,-0.128 E-score
25,GCAATCCA,-0.0776 E-score

row,Sequence,binding signal
1,ATCTCGCA,0.0378 E-score
2,AAACTGAA,-0.0353 E-score
3,AGAACCAC,0.0141 E-score
4,CATCGCGA,0.0993 E-score
5,AGTATATA,0.451 E-score
6,GACCTACC,-0.0238 E-score
7,CTATGGCA,-0.0358 E-score
8,CGATGCAC,0.0501 E-score
9,CTTAGCTC,-0.0364 E-score
10,AATATCTA,0.392 E-score
11,CAGTCATG,-0.0718 E-score
12,CATAGGGA,-0.158 E-score
13,AACTAACC,0.0534 E-score
14,ACAGCCAA,-0.0632 E-score
15,CTATTACA,0.293 E-score
16,CTTGTGAC,-0.182 E-score
17,ACTGAGTA,0.122 E-score
18,AGAATCAC,0.0697 E-score
19,TAGGCTCA,-0.1 E-score
20,CAACGCGA,0.0653 E-score
21,AAGCATGT,-0.0163 E-score
22,AAAGAAGA,-0.157 E-score
23,AGGGAGCC,-0.395 E-score
24,GTCGGACA,-0.126 E-score
25,AAAACTCA,0.0983 E-score

row,Sequence,binding signal
1,GGCTTAAC,-0.123 E-score
2,CACATAAG,0.136 E-score
3,CTCGACAA,-0.125 E-score
4,GTCAAATA,0.128 E-score
5,AGAAGGCA,-0.151 E-score
6,AGGAGGAC,-0.307 E-score
7,AGGTCACA,-0.201 E-score
8,AAAAGGCG,-0.0527 E-score
9,CCTCTGAG,-0.15 E-score
10,CCCTCTAG,-0.245 E-score
11,GCGGATCC,-0.241 E-score
12,AGTTCAGC,0.0483 E-score
13,TAAACCGA,0.0213 E-score
14,CACCCGTA,-0.134 E-score
15,CACCAGGC,-0.158 E-score
16,CTTGGGAA,-0.123 E-score
17,CGTGACGA,-0.252 E-score
18,AGATAGGG,-0.0883 E-score
19,GAAATGGC,-0.138 E-score
20,GCGATAGC,-0.368 E-score
21,GATTGGCA,-0.0381 E-score
22,AGTCTCGA,0.0181 E-score
23,ATTAAGAA,0.154 E-score
24,CGATTCTA,0.294 E-score
25,AGGTTCTG,0.0681 E-score

row,Sequence,binding signal
1,CTCGCCAC,-0.0895 E-score
2,ATGAGGCG,-0.173 E-score
3,ACCAGAAA,-0.0241 E-score
4,ACTACCAG,0.238 E-score
5,CATCGAAA,0.0782 E-score
6,ACCTACTA,0.372 E-score
7,AGCACGCG,-0.0941 E-score
8,CCATTCGG,-0.176 E-score
9,AGAGCTAG,-0.0248 E-score
10,CCAAACAG,-0.0174 E-score
11,CATGAACC,-0.18 E-score
12,GACGACGA,-0.0685 E-score
13,AAAGGCTG,-0.141 E-score
14,CCCAATAC,-0.0829 E-score
15,AAGTGTGG,0.0336 E-score
16,CCGGCGCA,-0.192 E-score
17,CCCAAAAA,0.0798 E-score
18,CCATTTTC,-0.00971 E-score
19,CCCGCCTC,-0.371 E-score
20,CAGCTTTC,-0.0895 E-score
21,ATCATTAG,0.121 E-score
22,CAGACCAC,-0.23 E-score
23,AACTCACA,0.103 E-score
24,GCTGTTCC,-0.0131 E-score
25,AAAGGGCA,-0.0463 E-score

row,Sequence,binding signal
1,CCTCCGTC,-0.432 E-score
2,AGTGCTCC,-0.387 E-score
3,ATAGCCAA,0.0646 E-score
4,CACCTCAA,-0.0154 E-score
5,CGACTTCA,0.0389 E-score
6,CAAAGTTA,0.0253 E-score
7,CTCCGTAA,-0.163 E-score
8,CTACGAAC,0.0431 E-score
9,CTTCATTA,0.13 E-score
10,CCCCGCTA,-0.291 E-score
11,TATATCGA,0.304 E-score
12,AATGTAAC,0.246 E-score
13,TAATTGAA,0.0218 E-score
14,GTAGAGAA,0.189 E-score
15,GGACACAC,-0.197 E-score
16,GCCTCATA,-0.166 E-score
17,ATCATTTG,0.166 E-score
18,GCACAAGC,-0.16 E-score
19,TCCATTCA,-0.123 E-score
20,GCTTACGA,-0.00757 E-score
21,GCTGGGGA,-0.275 E-score
22,AAGGCATG,-0.0797 E-score
23,TGCTGAAA,-0.0464 E-score
24,AATCAGGG,-0.054 E-score
25,AGATTTAC,0.29 E-score

row,Sequence,binding signal
1,GAAAGATA,0.241 E-score
2,AGATGCAA,-0.00215 E-score
3,CGGCGCGC,-0.318 E-score
4,ACACTCAT,-0.073 E-score
5,GAATTACC,0.216 E-score
6,GCGTTTAA,-0.0485 E-score
7,AAGCAGGA,-0.124 E-score
8,CAAGGTGG,-0.21 E-score
9,AGTTATCC,0.0385 E-score
10,CTAGAGCC,-0.223 E-score
11,TCACTGCA,0.017 E-score
12,CGTTGATA,0.219 E-score
13,CGGCGAGA,-0.114 E-score
14,CAGCCGTA,-0.029 E-score
15,ACAGACTA,0.252 E-score
16,CCGACGCG,-0.297 E-score
17,ACCCGATC,-0.248 E-score
18,GGATGGGA,-0.123 E-score
19,AAGACCAT,-0.15 E-score
